The campaign covered roughly 410,000 compounds. About 5,000 (1.2%) were called active. The inconclusive results got no clear call from the source; some entries with a clear call stand among them for comparison. Calls follow the shape of the dose curve; as a rule, active = well fitted inhibition curve with a large enough effect; inconclusive = small, poorly fitted or top-dose-only effect; inactive = no such curve, though single readings can be large or run the other way. Potencies of inconclusive entries are doubtful fits and often do not repeat.
Assay: qHTS for Inhibitors of TGF-b; also: nearly all actives have a fitted effect of over 65% in size
Details: HepG2 CAGA-GFP TGF-b/SMAD3 reporter, GFP fluorescence, 18 h, TGF-beta stimulated, 500 pg/mL final; series mostly up to 46.1 µM; activity, negative = inhibition: at the top concentration
Method in brief: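 Read-out: total well GFP (ex488/em500-530) summed from mean per-cell fluorescence. Cells: HEPG2 CAGA-GFP, 1% FBS DMEM, 18 h at 37 degrees C with 500 pg/mL final TGF-beta. Unstimulated wells served as the full-inhibition control; stimulated DMSO wells = 0%.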
% is scaled to controls: 0 for no effect and ±100 for the full control effect; potency is read from the fitted curve at half-maximal effect; tags tell the direction and shape of the fitted curve.

| SMILES | Potency | activity, negative = inhibition |
| --- | --- | --- |
| Nc1ncnc2c1C1(CCCCC1)Cc1ccccc1-2 | inconclusive: 3.98 µM [inhibitor, partial curve, poor fit] | – |
| CCCCc1nc(C(N)=O)c2[nH]c(=O)n(-c3ccc(OCC)cc3)c2n1 | – | inactive: 11.6% |
| CCOC(=O)c1cccc(S(=O)(=O)N(CCO)Cc2cc3cc(OC)c(OC)cc3[nH]c2=O)c1 | inconclusive: 7.08 µM [inhibitor, full curve, poor fit] | – |
| CC(=O)Nc1ccc(Oc2sc(C(=O)c3ccccc3)c(N)c2C#N)cc1 | active: 10 µM | – |
| COc1ccc(/C=N/NC(=O)c2ccc(C)cc2)cc1CN1CCN(c2ccc(F)cc2)CC1 | inconclusive: 35.5 µM [inhibitor, single point] | – |
| Cc1cccc(OCCCCn2c(C3CC(=O)N(c4ccccc4Cl)C3)nc3ccccc32)c1 (stereo not given) | inconclusive: 1.41 µM [inhibitor, full curve, poor fit] | – |
| COc1c(C)cc(C(=O)C2CCCN(C(=O)c3ccc4cc[nH]c4c3)C2)cc1C (stereo not given) | inconclusive: 4.47 µM [inhibitor, full curve, poor fit] | – |
| Cn1c(=O)n(-c2ccc(C(C)(C)C#N)cc2)c2c3cc(-c4cnc5ccccc5c4)ccc3ncc21 | inconclusive: 0.199 µM [inhibitor, full curve, poor fit] | – |
| CCOC(=O)C(Nc1ccc2ccccc2c1)C(=O)OCC | inconclusive: 25.1 µM [inhibitor, single point] | – |
| CCOc1cccc(C(=O)NC2CCCCC2)c1 | – | inactive: -0.433% |
| COc1ccc(C[C@H]2CN3C(=NC[C@@H]3C(C)C)N2C[C@H](C)NC(=O)c2ccc(C)c(Br)c2)cc1 | inconclusive: 20 µM [inhibitor, partial curve, poor fit] | – |
| CN1CCN(c2ccccc2NC(=O)c2ccc(-c3ccccc3)cc2)CC1 | inconclusive: 10 µM [inhibitor, partial curve, poor fit] | – |
| O=C(Nc1cc(F)ccc1F)N1CCC(CN2CCOCC2)CC1 | inconclusive: 35.5 µM [inhibitor, single point] | – |
| O=C(Nc1cc(Br)ccc1O)c1cc(-c2ccccc2)on1 | – | inactive: 7.78% |
| COc1cccc(C(=O)NCCSc2c(C)[nH]c3ccccc23)c1OC | – | inactive: -7.1% |
| CCOc1cccc(NC(=O)c2ccc(S(=O)(=O)N3CCCC3)cc2)c1 | inconclusive: 35.5 µM [inhibitor, single point] | – |
| CS(=O)(=O)Nc1ccccc1C(=O)Nc1cc(Cl)cc(Cl)c1 | active: 7.08 µM | – |
| CCN(CC)S(=O)(=O)c1ccc(OC)c(NC(=O)c2ccc(-n3cncn3)c([N+](=O)[O-])c2)c1 | inconclusive: 0.398 µM [inhibitor, partial curve, poor fit] | – |
| COc1ccccc1C(=O)NC1CCN(C(=S)NCCc2ccccc2)CC1 | – | inactive: -30.8% |
| Cc1cc(C)n(CCCN2CCC(C(=O)Nc3cccc(-c4cccc(F)c4)c3)CC2)n1 | inconclusive: 22.4 µM [inhibitor, single point] | – |
| C=CCC1(N(C(C)=O)c2ccccc2)CCCCC1 | inconclusive: 35.5 µM [inhibitor, single point] | – |
| CC(NS(=O)(=O)c1ccc(Br)cc1)C(N)=O (stereo not given) | inconclusive: 35.5 µM [inhibitor, single point] | – |
| CC1=C(C(=O)Nc2ccc(Cl)cc2)C(c2ccccc2C)n2ncc(C(=O)Nc3ccc(C)cc3)c2N1 (stereo not given) | inconclusive: 3.98 µM [inhibitor, full curve] | – |
| CCOC(=O)c1c(NC(=O)CCS(=O)(=O)c2ccccc2)sc2c1CC(C)(C)NC2(C)C | inconclusive: 25.1 µM [inhibitor, single point] | – |

| SMILES | Potency | activity, negative = inhibition |
| --- | --- | --- |
| COc1ccc(CCNC(=O)C(=O)NCC(c2ccc3c(c2)OCO3)N2CCOCC2)cc1 (stereo not given) | – | inactive: -6.58% |
| CN(C)c1ccc(CNC(=O)C2CCCN(S(=O)(=O)c3ccc4c(c3)oc(=O)n4C)C2)cc1 (stereo not given) | – | inactive: 1.6% |
| O=C(Nc1cccc(Cl)c1)Nc1ccc(Br)cc1F | inconclusive: 14.1 µM [inhibitor, single point] | – |
| O=S(=O)(C/C(=C/CO)S(=O)(=O)c1ccccc1)c1ccccc1 | inconclusive: 8.91 µM [inhibitor, partial curve, poor fit] | – |
| c1cc2[nH]snc2c2nc(C3CC3)nc12 | inconclusive: 35.5 µM [inhibitor, partial curve, poor fit] | – |
| CC(=O)Nc1ccc(NC(=O)C(C)OC(=O)CCc2c[nH]c3ccccc23)cc1 (stereo not given) | inconclusive: 22.4 µM [inhibitor, single point] | – |
| O=C(NCCc1nc2ccccc2n1CCOc1ccccc1)C1CCCCC1 | inconclusive: 35.5 µM [inhibitor, single point] | – |
| C=CCn1c(SCC(=O)NCc2ccco2)nnc1-c1cccc(N(C)C)c1 | inconclusive: 35.5 µM [inhibitor, single point] | – |
| Nc1cc(C(=O)OCC(=O)NCc2ccco2)ccc1Cl | inconclusive: 2.51 µM [inhibitor, single point] | – |
| O=C1NC2=C(C(=O)CCC2)C(c2ccc([N+](=O)[O-])cc2)N1 (stereo not given) | inconclusive: 22.4 µM [inhibitor, partial curve, poor fit] | – |
| O=C(CN1C(=O)NC2(CCCc3ccccc32)C1=O)Nc1cc(F)ccc1F (stereo not given) | – | inactive: -0.379% |
| CCn1c(C(=O)Nc2ccsc2C(=O)OC)cc2sc(Cl)cc21 | – | inactive: -3.13% |
| S=C(NCC1CCCO1)N1CCN(c2nc(-c3ccccc3)cs2)CC1 (stereo not given) | inconclusive: 22.4 µM [inhibitor, single point] | – |
| CCOC(=O)c1ccccc1NC(=O)C1CSC2(C)CCC(=O)N12 (stereo not given) | – | inactive: 0.182% |
| O=C(Nc1ccc(S(=O)(=O)Nc2cnc3ccccc3n2)cc1)c1ccc([N+](=O)[O-])cc1Cl | inconclusive: 15.8 µM [inhibitor, single point] | – |
| O=C(Cc1ccc(S(=O)(=O)N2CCOCC2)s1)Nc1ccccc1Br | – | inactive: 13.6% |
| CCN(CC)c1ccc(CNc2ccc3c(c2)ncn3CC)cc1 | – | inactive: 0.969% |
| COCCNc1ncnc2c1[nH]c1ccccc12 | – | inactive: 7.54% |
| O=C(Oc1ccc2c(c1)OCC2=O)c1ccc(Cl)cc1 | – | inactive: 6.24% |
| O=C(Nc1ccc(Cl)cn1)c1ccc(-c2cc(Cl)ccc2Cl)o1 | – | inactive: 1.1% |
| CN(CCOc1ccccc1)C(=S)Nc1ccc(OC(F)F)cc1 | inconclusive: 35.5 µM [inhibitor, single point] | – |
| Cc1ccc(C(=O)COC(=O)CN2C(=O)C3C4CCC(C4)C3C2=O)cc1[N+](=O)[O-] (stereo not given) | – | inactive: 0% |
| Cc1cc(C)nc(-n2nc(C)cc2NC(=O)CNC2CCCCC2)n1 | inconclusive: 35.5 µM [inhibitor, single point] | – |
| CCCc1nc2c3ccccc3ccn2c1Cc1ccc(C)cc1 | inconclusive: 35.5 µM [inhibitor, single point] | – |

| SMILES | Potency | activity, negative = inhibition |
| --- | --- | --- |
| Fc1ccc2cnc(-c3ccccc3)cc2c1 | inconclusive: 2.51 µM [inhibitor, full curve, poor fit] | – |
| CCC1Nc2ncnc(N3CCOCC3)c2N(Cc2ccc(OC)cc2)C1=O (stereo not given) | inconclusive: 6.31 µM [inhibitor, single point] | – |
| COc1cc(OC)cc(C(=O)N2CC(=O)Nc3ccc(Cl)cc3C2c2ccccc2)c1 (stereo not given) | inconclusive: 20 µM [inhibitor, single point] | – |
| C/C(=N\Nc1ncc(Cl)cc1Cl)c1ccc(S(=O)(=O)NCc2ccco2)cc1 | inconclusive: 35.5 µM [inhibitor, single point] | – |
| CCN(CC)CCCNC(=S)N1CCN(c2nc(-c3ccc(F)cc3)cs2)CC1 | inconclusive: 25.1 µM [inhibitor, partial curve, poor fit] | – |
| CCOc1ccccc1OCC(=O)Nc1cccc(S(=O)(=O)N2CCCCCC2)c1 | – | inactive: 5.03% |
| CCc1ccccc1NC(=O)c1ccc2nc(C(C)C)oc2c1 | inconclusive: 35.5 µM [inhibitor, single point] | – |
| CC1(C(=O)Nc2cnc3ccccc3c2)CCN1C(=O)c1ccccc1CCc1ccccc1 (stereo not given) | inconclusive: 22.4 µM [inhibitor, single point] | – |
| Cc1ccc(C)c(SCC(=O)Nc2cc(S(=O)(=O)N3CCOCC3)ccc2C)c1 | inconclusive: 35.5 µM [inhibitor, single point] | – |
| CCc1cnc2c(c1SCC(=O)c1ccc(Cl)cc1)c(=O)n(C)c(=O)n2C | – | inactive: -20.1% |
| COc1ccc(-c2coc3c(C(=O)NCC(C)C)cccc23)c(C)c1 | inconclusive: 7.08 µM [inhibitor, partial curve] | – |
| Cc1ccc(/C=C2\SC(N3CCCCC3)=NC2=O)cc1 | – | inactive: -17.6% |
| O=C1c2ccccc2C(Nc2ccc3c(c2)OCO3)N1Cc1ccc2c(c1)OCO2 (stereo not given) | – | inactive: 0.868% |
| CCC(C)Sc1ccc(-c2nc3ccc(C)cn3c2NCc2ccccc2)cc1OC (stereo not given) | inconclusive: 25.1 µM [inhibitor, single point] | – |
| CCc1nc2ccc(C(=O)NCc3cccs3)cn2c1N(C)Cc1nccs1 | – | inactive: -4.26% |
| O=C1C2C3C=CC(CC3)C2C(=O)N1c1ccccc1[N+](=O)[O-] (stereo not given) | – | inactive: -10.5% |
| CCCCCCn1c(Br)nc2c1c(=O)n(C)c(=O)n2C | inconclusive: 6.31 µM [inhibitor, partial curve, poor fit] | – |
| O=C(CN1CCC(c2nc3ccccc3[nH]2)CC1)Nc1ccc2c(c1)OCO2 | inconclusive: 15.8 µM [inhibitor, single point] | – |
| Cc1c(C(=O)NCCSCc2ccc(F)cc2)cnn1-c1ccc(Cl)cc1 | – | inactive: -0.825% |
| Cc1ccc(S(=O)(=O)N2CCCCC2)cc1NC(=O)c1ccncc1 | – | inactive: -27.1% |
| O=C(COc1ccccc1)NCC(=O)Nc1cccc2ccccc12 | – | inactive: -6.33% |
| COc1ccc(NC(=O)c2ccc3c(c2)sc2nc(-c4ccc(OC)cc4)cn23)cc1 | – | inactive: -29.7% |

Reference: PubChem BioAssay AID588855 (National Center for Advancing Translational Sciences (NCATS), 2011)
